# Measured values published in the supplement of paper PMC3334620.
# Over roughly 33,000 sequences, “E-score (-0.5 to 0.5)” has its median near -0.016; the highest 2% begin near 0.32. Some of the results follow.
# Target: T1, Stp1 (UniProt B3LFK1)
# T1 sequence: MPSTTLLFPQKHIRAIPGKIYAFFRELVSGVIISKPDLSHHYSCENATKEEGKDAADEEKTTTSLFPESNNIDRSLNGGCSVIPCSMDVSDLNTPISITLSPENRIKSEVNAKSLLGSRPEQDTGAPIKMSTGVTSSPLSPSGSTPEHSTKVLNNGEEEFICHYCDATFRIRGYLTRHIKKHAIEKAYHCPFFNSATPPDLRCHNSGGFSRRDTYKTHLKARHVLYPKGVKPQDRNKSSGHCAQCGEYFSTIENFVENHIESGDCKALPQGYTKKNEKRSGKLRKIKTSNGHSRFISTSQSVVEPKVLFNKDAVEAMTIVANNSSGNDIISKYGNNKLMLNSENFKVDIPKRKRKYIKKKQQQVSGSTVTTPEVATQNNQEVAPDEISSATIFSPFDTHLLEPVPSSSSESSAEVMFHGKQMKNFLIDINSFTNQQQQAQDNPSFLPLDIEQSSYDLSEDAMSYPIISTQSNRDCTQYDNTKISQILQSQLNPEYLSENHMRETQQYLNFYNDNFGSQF
# Assay: PBM E-score (8-mer binding enrichment) (E-score (-0.5 to 0.5)); higher = stronger / more preferred TF binding; most listed sequences are background and not binding sites
# Conditions: protein concentration: 200 nM; construct: GST-full length
# Summary of the method: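 Yeast transcription factors carrying a GST tag, as full-length proteins or DNA-binding domains, were produced by PURExpress in vitro transcription/translation. About 100-200 nM protein was applied to universal all-10-mer Agilent arrays, double-stranded by primer extension on fresh or once-stripped slides. Bound protein was detected with fluorescent anti-GST, and scans were normalised with masliner. The Universal PBM Analysis Suite gave each ungapped eight-base word, pooled with its reverse complement, an E-score, a modified Wilcoxon-Mann-Whitney statistic.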
row,Sequence,PBM E-score
1,GTTTCACA,0.216
2,CGTTGGAG,0.0649
3,GGCTTTCA,0.136
4,CCTAGAGC,-0.157
5,CACGCCTA,-0.00198
6,CGGATTAC,-0.0627
7,TTAGGGAA,-0.0263
8,CAGAGAAC,-0.171
9,AGGCACGA,0.267
10,ATGAAAGC,0.168
11,GCGGTCCC,-0.16
12,TCTCTACA,-0.127
13,AGTCTGGA,-0.0979
14,GCTTCCTA,-0.0318
15,AACAAACG,0.161
16,CCTCGATA,0.0827
17,CACTGCGG,0.124
18,CAGAGGCC,-0.211
19,TCTCCACA,0.0434
20,AACAATGC,0.174
21,GAAAATCC,0.0969
22,ACGAGATA,-0.136
23,AAGACCCT,-0.262
24,AAGGACCC,-0.247
25,GGATATCA,0.173

row,Sequence,PBM E-score
1,GCGCACGA,-0.0486
2,GTATGGAC,0.19
3,CCTTAGAG,-0.28
4,CCGTCGTA,-0.00666
5,CCGTAATC,0.0826
6,CACTTGGC,-0.191
7,CCTATTCA,-0.111
8,TCTACTCA,0.145
9,AACTCCCC,-0.012
10,TTATAAAA,0.222
11,GAACTGTC,-0.0423
12,ACTCGCAG,-0.188
13,CCTCAGCA,-0.0706
14,GAGAGGAC,-0.0873
15,AGGCGATG,0.0931
16,CGAACTCG,0.00865
17,AATTCCCC,-0.108
18,CGTGGTTC,0.0667
19,CACCCGTG,-0.0331
20,GTCTATTA,-0.0926
21,CTTTAGAC,0.0481
22,TCAGTAGA,-0.0633
23,AAGTACAT,0.0214
24,GGAATGAA,0.09
25,ACTGCCCC,-0.289

row,Sequence,PBM E-score
1,AAGTTCGC,0.0513
2,CTAGGAAG,-0.273
3,TCCTGTCA,-0.029
4,CCAGATAC,-0.015
5,GCTCAATA,0.0426
6,GCATTATA,-0.0517
7,CTGCAGAC,-0.159
8,ATAAATAG,-0.0604
9,CAGAATAA,0.059
10,AGTTCAAA,0.113
11,AACCCTAT,-0.164
12,AGGCCTAG,-0.168
13,CCGGCATA,-0.183
14,CGTCTAAA,-0.0578
15,GCTCGGCA,0.246
16,CTGAGTAC,-0.03
17,CAATCTAC,-0.176
18,GGTGCGAC,-0.0804
19,AGTAGGTA,0.0213
20,ACAACGCT,-0.142
21,CTTTCGCC,0.0289
22,GAACACTC,0.0893
23,GTACTCTA,-0.0718
24,CCGCCTAA,-6e-05
25,GCTGCCGA,0.011

row,Sequence,PBM E-score
1,ATAAGGTA,-0.171
2,TCCTTCGA,-0.0678
3,GAAGATTC,0.0984
4,AAGAGTTC,-0.22
5,GATCGAAA,0.214
6,GAAAGTTC,-0.0403
7,ACAGGTCC,-0.256
8,AGCTTGGA,-0.231
9,AATATCAA,0.0535
10,AATTGCGA,-0.0982
11,AACGTCCT,-0.171
12,CGGTAGAC,-0.0621
13,AGACAAGA,0.126
14,TAACACAA,0.0905
15,CCGGCCAG,-0.0747
16,GAATGTAC,0.014
17,CCCCATTA,-0.158
18,ATTTACAC,0.0489
19,CCCGGGGA,-0.317
20,CTGTAATA,0.142
21,ATAAAAAT,0.0615
22,ATTGGTTG,-0.0346
23,CTCGAGCC,-0.221
24,AAGAACGC,0.185
25,ATCCGGAC,-0.166

row,Sequence,PBM E-score
1,AGATCTTC,-0.158
2,GATAGAAC,0.0526
3,ATTGCTGA,-0.0348
4,GATTTCCC,-0.0966
5,CGGCTAAC,0.284
6,AGCGGACT,-0.313
7,ATTAGGAA,0.0739
8,AACGTTAA,0.153
9,ATACTAGC,-0.022
10,GATGACTA,-0.138
11,CAATGTAC,-0.169
12,GGATCAAC,-0.0265
13,CACGAAAA,0.272
14,GATCCCTA,-0.0567
15,GTCGGTGA,-0.136
16,ACCTTGTA,0.0137
17,CCGTTTTC,0.269
18,CCCCTGTC,-0.321
19,ATAATATG,0.159
20,AGGCCTAA,-0.118
21,ACACCTTG,-0.0812
22,AACTCCCA,-0.105
23,GACGCACC,-0.0744
24,CGCTATCA,0.0552
25,CAACCGTA,0.0882

row,Sequence,PBM E-score
1,AAATAGCG,0.171
2,GGATCGAA,0.0801
3,AAGCTGCC,0.024
4,AATCCTCA,-0.0502
5,CAAAACTA,0.243
6,ATATCGTC,-0.12
7,GCAAATCA,0.0745
8,AACGCTAC,-0.072
9,AACCTCTT,0.0171
10,AGGATCCA,-0.181
11,CCTCACCC,-0.0609
12,GCTCTCAC,-0.211
13,AAGCTCAT,-0.206
14,ACGCTGCA,-0.132
15,CCGAGAAC,0.0968
16,AGGTCCGG,-0.15
17,ACAGAACG,-0.0053
18,GCTACCGA,0.0275
19,CGCCTGCC,0.155
20,AAGTCCGC,-0.0419
21,CTCCGCTA,-0.119
22,CCCTCCCG,-0.203
23,CCACGAAA,0.157
24,GAGCCATC,-0.0799
25,CTAAAATA,-0.0326

row,Sequence,PBM E-score
1,AAAGCGCA,-0.215
2,CGACTCCG,-0.155
3,TGGGCAAA,-0.0411
4,ACGCGTTC,-0.0447
5,AAATAATC,0.146
6,ATGCATAC,0.0588
7,CTTCCCCC,-0.402
8,ACTCGGCC,-0.0586
9,ATGAAAGA,0.0296
10,CATGCCAA,0.148
11,TTACTCAA,0.11
12,AACTCCCG,-0.0619
13,AGTTGCAG,-0.0709
14,AAGACTTG,-0.0595
15,GTTAGTAA,0.0217
16,GTTATAAA,0.0721
17,CTCACAGA,-0.0214
18,ATGTAGTG,-0.115
19,CCGGACGC,0.116
20,ACAAAACA,0.0402
21,AGTGGTGA,-0.02
22,AGCCATAG,-0.175
